{"source": "patent US20040053370A1", "binders": {"B1": {"name": "Gly^8-Glu^22-GLP-1-C2-IgG1 (Fc fusion)", "chain": "HGEGTFTSDVSSYLEEQAAKEFIAWLVKGRGSSGASSGAA[omitted - human IgG1 Fc]"}}, "target": "GLP-1 receptor", "assay": "cell-based or functional assay", "data": [{"binder": "B1", "values": [{"measurement": "In Vitro Activity (% of Val^8-GLP-1) (% of Val^8-GLP-1)", "result": 75}]}]}
